About 4,700 (1.2%) of roughly 390,000 compounds were called active. The shares of active, inactive and inconclusive entries below differ from those in the screen. The call rests on the fitted dose curve; in most records, active means well fitted inhibition curve with a large enough effect; inconclusive means small, poorly fitted or top-dose-only effect, or another doubt; inactive means no such curve, though single readings can be large or run the other way. Potencies of inconclusive entries are doubtful fits and often do not repeat. *1 amine or outer side, *2 acyl side, *3 side chain or, on linkers, in order; H or OH if unused. Where a SMILES comes first, the peptide text is derived from it. Bridges are numbered along the chain shown (N, C = ends). [ ]: non-standard residue; d: D form. ξ: configuration not given here. hSer(Ph(2-I,4-NO2,6-CO)) = O=C([C@H](CCOc1c(I)cc([N+](=O)[O-])cc1C(=O)[*:3])N[*:1])[*:2]; ξD = NC(CC(=O)O)C(=O)O
target: DNA polymerase eta (Homo sapiens) (UniProt Q9Y253); assay: qHTS for Inhibitors of Polymerase Eta; settings: recombinant Pol eta, fluorescent DNA replication assay; series mostly up to 114 µM
How it was run: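 Fluorescent replication assay: 50 nM final substrate added after a 15 min room-temperature compound preincubation with 10 nM enzyme. Signal taken at 0 min and again at 10 min.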
Potency means the concentration at half of the fitted maximal effect; tags describe the fitted curve by direction and shape.

UniProt Q9Y253, sequence (Q9Y253 whole entry, looked up): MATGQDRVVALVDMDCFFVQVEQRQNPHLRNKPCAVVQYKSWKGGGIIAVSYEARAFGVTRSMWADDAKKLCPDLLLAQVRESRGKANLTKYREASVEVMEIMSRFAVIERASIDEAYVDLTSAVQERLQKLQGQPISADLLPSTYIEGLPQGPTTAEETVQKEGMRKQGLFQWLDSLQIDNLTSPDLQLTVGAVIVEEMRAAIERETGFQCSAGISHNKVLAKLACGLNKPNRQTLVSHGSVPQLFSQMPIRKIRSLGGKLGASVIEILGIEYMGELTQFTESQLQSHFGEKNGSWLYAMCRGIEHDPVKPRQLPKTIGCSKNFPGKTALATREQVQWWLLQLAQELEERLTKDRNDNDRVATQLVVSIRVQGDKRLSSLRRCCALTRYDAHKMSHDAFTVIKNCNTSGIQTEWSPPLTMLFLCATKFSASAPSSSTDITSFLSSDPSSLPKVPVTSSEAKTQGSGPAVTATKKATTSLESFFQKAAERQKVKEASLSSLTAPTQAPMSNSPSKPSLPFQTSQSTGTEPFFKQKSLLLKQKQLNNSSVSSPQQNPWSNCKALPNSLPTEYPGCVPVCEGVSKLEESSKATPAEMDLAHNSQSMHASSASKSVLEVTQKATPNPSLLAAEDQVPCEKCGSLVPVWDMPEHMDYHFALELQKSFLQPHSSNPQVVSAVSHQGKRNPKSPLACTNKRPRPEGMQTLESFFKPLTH

| SMILES | Potency |
| --- | --- |
| NC(=O)c1ccsc1NC(=O)COC(=O)c1ccccn1 | inconclusive: 50.1 µM [inhibitor, partial curve] |
| N#CCn1cnc2sc(-c3ccccc3)cc2c1=O | inconclusive: 28.2 µM [inhibitor, full curve] |
| CCc1cc(-c2ccc3c(c2)COc2c4ccccc4nn2-3)on1 | inconclusive: 79.4 µM [inhibitor, partial curve, poor fit] |
| COc1ccc(/C=C/C(=O)c2cc3cccc(OC)c3oc2=O)cc1 | inconclusive: 50.1 µM [inhibitor, partial curve] |
| C/C(=N\NC(=O)COc1ccc(C(C)(C)C)cc1)c1ccccc1 | inconclusive: 79.4 µM [inhibitor, partial curve, poor fit] |
| CC(C)C[C@H](NC(=O)c1[nH]cnc1C(=O)Nc1ccc(CNC(=O)OC(C)(C)C)cc1)C(=O)OC(C)(C)C | inconclusive: 44.7 µM [inhibitor, partial curve, poor fit] |
| COc1ccccc1-n1c(SCC(=O)N2CCOCC2)nc2ccccc2c1=O | inactive |
| CC(NC(=O)CNC(=O)c1sc2ccccc2c1Cl)c1ccc(S(N)(=O)=O)cc1 (stereo not drawn) | inconclusive: 35.5 µM [inhibitor, partial curve, poor fit] |
| O=C1CC(c2ccc3c(c2)OCO3)C2=C(CCCC2=O)N1 (stereo not drawn) | inconclusive: 79.4 µM [inhibitor, partial curve, poor fit] |
| CCCCCCC(=O)N(O)C1CC(=O)N(c2ccc(C)cc2)C1=O (stereo not drawn) | inactive |
| O=S(=O)(c1ccc2nc(Nc3ccc(F)cc3)ccc2c1)N1CCCC1 | inactive |
| Cn1cccc1C(=O)NC(=O)COC(=O)c1ccc(S(C)(=O)=O)c([N+](=O)[O-])c1 | inconclusive: 17.8 µM [inhibitor, full curve, poor fit] |
| Clc1ccc(Nc2nc(-c3ccncc3)cs2)cc1 | inconclusive: 28.2 µM [inhibitor, single point] |
| Cc1cc(N2CCC(C)CC2)nc2ccc(NC(=O)CCC(=O)N3CCN(c4ccccc4F)CC3)cc12 | inconclusive: 44.7 µM [inhibitor, partial curve, poor fit] |
| O=C1C2CC=C(Cl)CC2C(=O)N1CCN1CCOCC1 (stereo not drawn) | inconclusive: 31.6 µM [inhibitor, partial curve, poor fit] |
| Cc1ccc(O)c(C(=O)c2cc(C#N)c(=O)n(-c3nccs3)c2)c1 | active: 39.8 µM |
| NC(=O)/C=C\c1cn(-c2ccccc2)nc1-c1ccc2c(c1)OCCO2 | inconclusive: 89.1 µM [inhibitor, partial curve, poor fit] |
| NC(=O)c1ccsc1NC(=O)COC(=O)CNC(=O)c1cccc([N+](=O)[O-])c1 | active: 35.5 µM |
| O=C1NN(c2ccccc2)C(=O)/C1=C\c1ccc(-c2cc([N+](=O)[O-])ccc2O)o1 | active: 20 µM |
| COc1ccccc1CNC(=O)c1ccccc1C(=O)NC(CC(C)C)C(=O)NCc1ccccc1OC (stereo not drawn) | inactive |
| CCCn1ncc2c(Nc3ccc(C)c(C)c3)ncnc21 | inconclusive: 89.1 µM [inhibitor, partial curve, poor fit] |
| O=C(c1cc2cc3ccc(Cl)cc3nc2o1)N1CCN(c2cccc(Cl)c2)CC1 | inactive |
| O=C(NC(Cc1ccccc1)C(=O)O)/C(=C/c1ccco1)NC(=O)c1cccc(Br)c1 (stereo not drawn) | active: 20 µM |

| SMILES | Potency |
| --- | --- |
| O=C(NCC1CC1)c1ccc(Nc2nc3ccc(Br)cc3[nH]2)cc1 | inconclusive: 56.2 µM [inhibitor, partial curve, poor fit] |
| NS(=O)(=O)c1cccc(NC(=O)c2ccc3nc[nH]c3c2)c1 | active: 79.4 µM |
| Cc1ccc(C(=O)N/N=C\c2cc(Br)c(Br)o2)cn1 | inconclusive: 50.1 µM [inhibitor, partial curve] |
| CCOC(=O)Nc1ccc2c(COC(=O)C(NS(=O)(=O)c3ccc(Cl)cc3)C(C)O)cc(=O)oc2c1 (stereo not drawn) | inconclusive: 15.8 µM [inhibitor, full curve, poor fit] |
| Cc1ccc(CNC(=O)CCCc2nnc3n(CC(C)C)c(=O)c4sccc4n23)cc1 | inactive |
| COc1ccc(/C=N/NC(=O)c2cc3c(OC)ccc(OC)c3[nH]2)cc1O | inconclusive: 31.6 µM [inhibitor, partial curve, poor fit] |
| CSc1ccc(C2C(C#N)=C(N)Oc3c2ccc(=O)c2c(C)oc(C)c32)cc1 (stereo not drawn) | active: 11.2 µM |
| COc1cc(/C=C/C(=O)OCC(=O)N2CCN(S(=O)(=O)c3ccc(C)cc3C)CC2)ccc1O | active: 20 µM |
| Cc1ccccc1C(=O)O/N=C(\N)c1cccc([N+](=O)[O-])c1 | inactive |
| COCCN(C(=O)COC(=O)CCOc1cccc(C)c1)c1c(N)n(Cc2ccccc2)c(=O)[nH]c1=O | inactive |
| COc1ccc(-c2cn3nc(SCC(=O)Nc4cc(C)cc(C)c4)ccc3n2)cc1 | inactive |
| COC(=O)c1ccc(-n2c(/C=C/c3cc(OC)c(OC)c(OC)c3)nc3cc(Cl)ccc3c2=O)cc1 | inactive |
| C=CCN1C(=O)/C(=C/C=C2/N(CC)c3ccc(S(=O)(=O)N(C)C)cc3N2CC)SC1=S | active: 44.7 µM |
| NC(=O)C(CC(=O)O)NC(=O)[C@@H]1CCOc2c(I)cc([N+](=O)[O-])cc2C(=O)N[C@@H](CO)C(=O)N[C@@H](Cc2ccc(O)cc2)C(=O)N1 (stereo partly drawn) (SY[hSer(Ph(2-I,4-NO2,6-CO))][ξD]-NH2; lactam N-3) | active: 20 µM |
| CC(=O)c1cccc(NC(=O)Cn2cc(C(=O)c3cccc(Cl)c3)c(=O)c3ccc(C)nc32)c1 | inactive |
| O=C1C(Cl)=C(N2CCCCC2)C(=O)C(Cl)=C1c1cnc(N2CCCCC2)s1 | inconclusive: 89.1 µM [inhibitor, single point] |
| COc1ccc(OCc2ccc(-c3nc(C#N)c(NCc4cccnc4)o3)o2)cc1 | inconclusive: 79.4 µM [inhibitor, partial curve, poor fit] |
| Cc1ccc(N=Cc2c(O)n(-c3nccs3)c(=O)c3ccccc23)c(C)c1 | inconclusive: 20 µM [inhibitor, partial curve, poor fit] |
| Cc1cc(Nc2ccc(Cl)cc2)n(-c2cccc(Cl)c2)n1 | inconclusive: 70.8 µM [inhibitor, partial curve, poor fit] |
| COCc1cc(C)nc2sc(C(=O)NC3CCCCC3)c(N)c12 | inconclusive: 35.5 µM [inhibitor, partial curve, poor fit] |
| CCN(CC)c1cc(Cl)c2nonc2c1N | inactive |
| CS(=O)(=O)N(CC(=O)NCCSCc1cccc(Cl)c1)c1ccc2c(c1)OCO2 | inconclusive: 89.1 µM [inhibitor, single point] |
| COc1cccc(C2[C@H](C)C3(CCN2C)OCCO3)c1 (stereo partly drawn) | inactive |

| SMILES | Potency |
| --- | --- |
| Cc1cccc(NC(=S)N(CCCN2CCCC2)Cc2cccn2Cc2ccc(Cl)cc2)c1 | inconclusive: 100 µM [inhibitor, partial curve, poor fit] |
| COc1cc(/C=N/N2C(=O)CSC2=S)cc(Br)c1O | active: 25.1 µM |
| COc1ccc(CCn2c(NN)nc3c2c(=O)[nH]c(=O)n3C)cc1 | active: 89.1 µM |
| NC(=O)c1nsc(C(=O)N(c2ccc(F)cc2)C(C(=O)NC2CCCC2)c2ccncc2)c1N (stereo not drawn) | inconclusive: 12.6 µM [inhibitor, partial curve, poor fit] |
| COc1ccc(NC(=O)c2cc3c(=O)n(Cc4cccnc4)ccc3nc2C)c(OC)c1 | inactive |
| C/C(=N\Nc1nc(-c2cc(C)ccc2C)cs1)c1cc2c(ccc3ccccc32)oc1=O | inactive |
| O=C(NCCCc1ccccc1)c1cc([N+](=O)[O-])ccc1Cl | inactive |
| COc1cccc(N=c2oc3ccc(OC)cc3cc2-c2nc3ccccc3[nH]2)c1 | active: 44.7 µM |
| O=C(CCN1C(=O)/C(=C/c2cccs2)SC1=S)NC1=NCCS1 | inconclusive: 20 µM [inhibitor, partial curve, poor fit] |
| COc1ccc(Nc2nc(-c3cccs3)nc3ccccc23)cc1 | inconclusive: 39.8 µM [inhibitor, partial curve] |
| Oc1ccc(-c2csc(Nc3cccc4ccccc34)n2)cc1O | active: 15.8 µM |
| COc1ccc(/C=C2\C(=O)NC(=S)N2C(=O)c2ccc(C)cc2)cc1 | active: 15.8 µM |
| CN1CCN(c2ccc(S(=O)(=O)N3CCOCC3)cc2NC(=O)COc2ccc(F)cc2Cl)CC1 | inactive |
| Cc1ccc(NC(=O)c2c(C)nn(-c3ccccc3)c2-n2cccc2)c(Cl)c1 | inactive |
| COc1cc(/C=C2/SC(=S)N(CC3CCCO3)C2=O)ccc1O (stereo not drawn) | inconclusive: 56.2 µM [inhibitor, partial curve, poor fit] |
| O=C(NCc1ccccc1)c1ncn[nH]1 | inconclusive: 79.4 µM [inhibitor, partial curve, poor fit] |
| CCc1ccc(C2C(C#N)=C(N)SC(N)=C2C#N)s1 | inconclusive: 50.1 µM [inhibitor, partial curve, poor fit] |
| CC1CCCC(C)N1CCCNC(=O)c1cc2c(s1)-c1ccccc1OC2 (stereo not drawn) | inconclusive: 100 µM [inhibitor, partial curve, poor fit] |
| Cc1ccc(S(=O)(=O)/N=C(\CCl)N2CCOCC2)cc1 | inconclusive: 15.8 µM [inhibitor, partial curve, poor fit] |
| COc1ccc(S(=O)(=O)N2CCCOC2CNC(=O)C(=O)NCc2ccncc2)cc1 (stereo not drawn) | inactive |
| O=C(O)c1ccc(CSCc2ccco2)cc1 | inconclusive: 20 µM [inhibitor, partial curve] |
| CSC1=N/C(=C\c2ccc(F)cc2)C(=O)S1 | inconclusive: 79.4 µM [inhibitor, partial curve, poor fit] |
